Measured values published in PubChem BioAssay AID1745845 (National Center for Advancing Translational Sciences (NCATS), 2022).
In all, about 360,000 compounds went through this assay and about 2,600 (0.72%) were called active. Inconclusive results, whose numbers are uncertain, are shown with a selection of clear calls. Calls come from the whole dose curve; as a rule, active = well fitted inhibition curve with a large enough effect; inconclusive = small, poorly fitted or top-dose-only effect; inactive = no such curve, though single readings can be large or run the other way. Where the call is inconclusive, the potency comes from a doubtful curve fit.

Test: Primary qHTS for Inhibitors of ATXN expression; note: nearly all actives have a fitted effect of over 55% in size
Details: HEK-293 ATXN2-luciferase reporter, luminescence, 24 h; activity change, negative = inhibition: at 57 µM (top of the series)
In short: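 ATXN2-luciferase reporter cells (luciferase flanked by upstream and downstream ATXN2 gene portions) were treated 24 h at 37 °C with compounds at up to 57 uM. SteadyGlo luminescence gave expression; GF-AFC fluorescence gave viability.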
% is set by controls: 0 for no effect and ±100 for the full control effect; potency is the fitted concentration of half-maximal effect; tags give direction and shape of the fitted curve.

Question: For Cc1ccc(NC(=O)CS(=O)CC(=O)Nc2ccccc2-c2ccc(C)o2)cc1 (stereo not drawn), which Potency is on record?
Answer: inconclusive: 7.08 µM [inhibitor, partial curve, poor fit]

Question: With CCNC(=S)N/N=C/c1cccc(C)c1 as the compound, how does the “activity change, negative = inhibition” value read?
Answer: inactive: 30.4%

Question: For Cc1cccc(Nc2nc(N)c([N+](=O)[O-])c(N3CCCC(C)C3)n2)c1 (stereo not drawn), which Potency is on record?
Answer: inconclusive: 31.6 µM [inhibitor, single point]

Question: For O=C(Nc1ccc(OC(F)(F)F)cc1)Nc1cccc([N+](=O)[O-])c1, which Potency is on record?
Answer: inconclusive: 39.8 µM [inhibitor, single point]

Question: Which “activity change, negative = inhibition” value does the source give for COc1ccc(-c2cc(-c3ccccc3)c(C#N)c(SCC(=O)O)n2)cc1 here?
Answer: inactive: -5.66%

Question: Which “activity change, negative = inhibition” value does the source give for Cc1cccc(CCNC(=O)c2cc3c(s2)-c2c(C)cccc2OC3)c1 here?
Answer: inactive: 0.613%

Question: With COc1ccc2c(C)cc(SCC(=O)Nc3ccc(Cl)cn3)nc2c1 as the compound, how does the Potency read?
Answer: inconclusive: 11.2 µM [inhibitor, partial curve]

Question: With CCOc1ccc2nc(NC(=O)C(NS(=O)(=O)c3cccc4nsnc34)C(C)C)sc2c1 (stereo not drawn) as the compound, how does the “activity change, negative = inhibition” value read?
Answer: inactive: 5.76%

Question: With CC(=O)N1CCOc2ccc(S(=O)(=O)N3C(C)CCCC3C)cc21 (stereo not drawn) as the compound, how does the “activity change, negative = inhibition” value read?
Answer: inactive: -8.2%

Question: With CCOC(=O)C1=CCN(S(=O)(=O)c2ccccc2Br)C1c1ccc(Cl)c(Cl)c1 (stereo not drawn) as the compound, how does the Potency read?
Answer: inconclusive: 39.8 µM [inhibitor, single point]

Question: Which “activity change, negative = inhibition” value does the source give for CN(Cc1nccn1C)C(=O)C1CCC(=O)N(Cc2cccc(C(F)(F)F)c2)C1 (stereo not drawn) here?
Answer: inactive: 10.9%

Question: With Cc1nc(SCc2nc3cc(Cl)c(F)cc3[nH]2)c2oc3ccccc3c2n1 as the compound, how does the Potency read?
Answer: inconclusive: 25.1 µM [inhibitor, single point]

Question: For O=C(c1cccc(S(=O)(=O)N2CCCc3ccccc32)c1)N1CCN(c2ccccc2)CC1, which Potency is on record?
Answer: inconclusive: 22.4 µM [inhibitor, single point]

Question: For COc1cc(C(=O)NCCc2csc(-c3ccc(Cl)cc3)n2)cc(OC)c1OC, which Potency is on record?
Answer: active: 20 µM

Question: With C=CCSc1n[nH]c(-c2ccc(OCCCC)cc2)n1 as the compound, how does the Potency read?
Answer: inconclusive: 39.8 µM [inhibitor, single point]

Question: Which Potency does the source give for O=C(CC1(O)C(=O)Nc2ccccc21)c1cccc(Br)c1 (stereo not drawn) here?
Answer: inconclusive: 2 µM [inhibitor, partial curve]

Question: For CCOc1ccc(N(CC(=O)Nc2cccc(Cl)c2)S(=O)(=O)c2c(C)noc2C)cc1, which “activity change, negative = inhibition” value is on record?
Answer: inactive: -37.7%

Question: With Cc1noc(C)c1CCC(=O)NC1CCCN(Cc2ccc(CC(C)C)cc2)C1 (stereo not drawn) as the compound, how does the Potency read?
Answer: inconclusive: 15.8 µM [inhibitor, partial curve, poor fit]

Question: With O=C(/C=C/c1ccco1)NC(=S)Nc1ccc(O)c(-c2nc3ccccc3s2)c1 as the compound, how does the Potency read?
Answer: inconclusive: 31.6 µM [inhibitor, partial curve, poor fit]

Question: For Oc1ccccc1CNCC12CC3CC(CC(C3)C1)C2, which “activity change, negative = inhibition” value is on record?
Answer: inactive: 9.3%

Question: With O=C(c1ccccc1)c1c2c(cc3sc4ccccc4[n+]13)-c1cccc3cccc-2c13 as the compound, how does the Potency read?
Answer: inconclusive: 11.2 µM [inhibitor, partial curve]

Question: With Cc1ccc(CN2CC(C(=O)Nc3ccc(C)cn3)CC2=O)cc1 (stereo not drawn) as the compound, how does the Potency read?
Answer: inconclusive: 20 µM [inhibitor, single point]

Question: With Cc1ccc(OCC(=O)Nc2ccccc2N2CCOCC2)c(C)c1 as the compound, how does the “activity change, negative = inhibition” value read?
Answer: inactive: 3.86%

Question: With CCCNC(=O)NS(=O)(=O)c1ccc(Cl)cc1 as the compound, how does the Potency read?
Answer: inactive

Question: For CC(=O)O[C@]1(C(C)=O)CC[C@H]2[C@@H]3C=C(Cl)C4=CC(=O)CC[C@]4(C)[C@H]3CC[C@@]21C, which Potency is on record?
Answer: inconclusive: 39.8 µM [inhibitor, single point]

Question: With CCn1cc(C(=O)NCCc2ccc(OC)c(OC)c2)c(=O)c2cc(S(=O)(=O)N(C)C3CCCCC3)ccc21 as the compound, how does the Potency read?
Answer: inconclusive: 39.8 µM [inhibitor, single point]

Question: Which Potency does the source give for COc1ccc(-c2sc3ccccc3c2-c2ccc(OCCN(C)C)cc2)cc1 here?
Answer: inconclusive: 22.4 µM [inhibitor, partial curve, poor fit]

Question: Which Potency does the source give for S=c1[nH]nc(-c2cc(-c3ccccc3)n[nH]2)n1/N=C/C(Br)=C/c1ccccc1 here?
Answer: inconclusive: 37.7 µM [inhibitor, single point]

Question: For CCn1nc(C)c2c(-c3ccccc3)cc(=O)n(C(C)C(=O)NCc3ccccc3OC)c21 (stereo not drawn), which Potency is on record?
Answer: inconclusive: 25.1 µM [inhibitor, single point]

Question: For COc1ccccc1-c1csc(C(O)(c2ccccc2)C(F)(F)F)n1 (stereo not drawn), which Potency is on record?
Answer: inconclusive: 39.8 µM [inhibitor, partial curve, poor fit]

Question: For COc1cc(C(=O)N2CCN(c3ncnc4sc(C)c(C)c34)CC2)cc(OC)c1OC, which Potency is on record?
Answer: inconclusive: 25.1 µM [inhibitor, single point]

Question: With COc1cc(OC)cc(-c2nc3nc(C)c(CCC(=O)Nc4ccc(C)cc4C)c(C)n3n2)c1 as the compound, how does the “activity change, negative = inhibition” value read?
Answer: inactive: -4.94%

Question: With COc1ccc(C(=O)COC(=O)CN2CC(=O)Oc3ccccc32)cc1Br as the compound, how does the Potency read?
Answer: inconclusive: 12.6 µM [inhibitor, partial curve]

Question: For COc1ccc2c(c1)Sc1ccccc1N2, which Potency is on record?
Answer: inconclusive: 15 µM [inhibitor, single point]

Question: With CC(C)Cc1ccc(CN2C(C(C)C)C(=O)N(Cc3cn(CCC4OCCO4)nn3)CCS2(=O)=O)cc1 (stereo not drawn) as the compound, how does the Potency read?
Answer: inconclusive: 22.4 µM [inhibitor, single point]

Question: For Fc1ccc(-n2ncc3c(Nc4cccc(Cl)c4)ncnc32)cc1, which Potency is on record?
Answer: inconclusive: 39.8 µM [inhibitor, single point]

Question: With Cc1csc(SCCn2c(N3CCN(c4ccccc4)CC3)nc3c2c(=O)[nH]c(=O)n3C)n1 as the compound, how does the “activity change, negative = inhibition” value read?
Answer: inactive: -3.25%

Question: With Cc1ccc(-c2noc(CCCC(=O)Nc3cccnc3)n2)cc1 as the compound, how does the Potency read?
Answer: inconclusive: 2.51 µM [inhibitor, full curve, poor fit]

Question: With O=C(Nc1csc([N+](=O)[O-])c1)Nc1ccccc1Cl as the compound, how does the Potency read?
Answer: inconclusive: 35.5 µM [inhibitor, single point]

Question: Which Potency does the source give for O=C(/C=C/c1ccccc1)N1CCN(c2c(Cl)cccc2[N+](=O)[O-])CC1 here?
Answer: inconclusive: 39.8 µM [inhibitor, single point]

Question: For Cc1cc(Cl)cc(Br)c1OCCCN1C(=O)NC(C)(C)C1=O, which “activity change, negative = inhibition” value is on record?
Answer: inactive: 3.88%

Question: With CCOc1cccc2sc(N(CCN(C)C)C(=O)c3cc4ccccc4cc3OC)nc12 as the compound, how does the Potency read?
Answer: active: 20 µM

Question: With CCOc1ccc(N2C(=O)c3[nH]nc(-c4ccc(OC)cc4)c3C2c2cccs2)cc1 (stereo not drawn) as the compound, how does the Potency read?
Answer: inconclusive: 22.4 µM [inhibitor, single point]
